The source of these data is article PMC4336329 (PLoS ONE, 2015).

Hit rate of the full screen: of about 310,000 compounds, about 14,000 (4.5%) showed an effect of 50% or more. Effects have a minus sign here. Some of the results follow.
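Note: peak tail current of the secondary pulse compared with the same well before compound.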

The target in this experiment is human ether-à-go-go-related gene (hERG) potassium channel (human, UniProt Q12809). Nature of the experiment: primary screen, population patch clamp on CHO cells stably expressing hERG.
Chain of human ether-à-go-go-related gene (hERG) potassium channel (Q12809 whole entry, looked up): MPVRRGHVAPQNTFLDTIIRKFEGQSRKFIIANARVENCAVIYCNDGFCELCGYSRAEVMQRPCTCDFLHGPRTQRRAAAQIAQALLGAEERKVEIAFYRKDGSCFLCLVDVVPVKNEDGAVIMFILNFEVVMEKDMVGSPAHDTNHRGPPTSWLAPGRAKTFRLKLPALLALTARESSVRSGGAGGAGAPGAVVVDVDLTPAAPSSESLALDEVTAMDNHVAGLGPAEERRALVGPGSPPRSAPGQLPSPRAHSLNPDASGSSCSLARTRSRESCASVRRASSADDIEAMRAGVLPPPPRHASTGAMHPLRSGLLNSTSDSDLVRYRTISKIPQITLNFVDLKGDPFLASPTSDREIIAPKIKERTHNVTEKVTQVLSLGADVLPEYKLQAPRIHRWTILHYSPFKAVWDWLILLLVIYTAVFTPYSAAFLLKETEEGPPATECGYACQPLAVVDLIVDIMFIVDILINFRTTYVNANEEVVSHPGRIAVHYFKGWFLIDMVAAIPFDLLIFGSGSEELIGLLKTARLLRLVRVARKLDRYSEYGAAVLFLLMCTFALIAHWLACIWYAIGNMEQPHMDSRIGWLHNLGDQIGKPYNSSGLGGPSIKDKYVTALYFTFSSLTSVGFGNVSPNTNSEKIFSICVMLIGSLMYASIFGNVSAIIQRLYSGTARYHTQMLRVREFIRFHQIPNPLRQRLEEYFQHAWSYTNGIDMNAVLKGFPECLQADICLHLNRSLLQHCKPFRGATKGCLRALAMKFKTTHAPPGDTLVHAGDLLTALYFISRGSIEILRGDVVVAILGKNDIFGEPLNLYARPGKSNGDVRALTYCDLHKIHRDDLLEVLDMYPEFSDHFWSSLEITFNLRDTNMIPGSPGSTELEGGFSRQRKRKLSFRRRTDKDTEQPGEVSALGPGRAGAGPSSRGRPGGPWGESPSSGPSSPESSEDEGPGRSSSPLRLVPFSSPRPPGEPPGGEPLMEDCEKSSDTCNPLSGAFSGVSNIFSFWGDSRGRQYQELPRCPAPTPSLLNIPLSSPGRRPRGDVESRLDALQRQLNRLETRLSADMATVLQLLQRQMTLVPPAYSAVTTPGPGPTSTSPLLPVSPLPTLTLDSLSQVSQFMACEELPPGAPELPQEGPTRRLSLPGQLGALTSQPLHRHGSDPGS
In the case of `CN(Cc1ccccc1F)C(=O)c1ccc(NS(=O)(=O)c2ccc3[nH]c(=O)[nH]c3c2)cc1`, the “hERG current change (%, negative = inhibition) at 10uM” value is recorded as 6.14%.

As for `CC(Nc1ccc(Cl)cc1)C(=O)NN` (stereo not drawn), the “hERG current change (%, negative = inhibition) at 10uM” value is given as -5.86%.

Regarding `CCCCCCNCCn1cnc2c(N)ncnc21`, the “hERG current change (%, negative = inhibition) at 10uM” value is reported as -38%.

In the case of `CNc1oc(-c2ccc(Cl)cc2)nc1C#N`, the “hERG current change (%, negative = inhibition) at 10uM” value is listed as -4.17%.

In the case of `COc1ccc(S(=O)(=O)N2CCCCC2)cc1NC(=O)CSc1nccn1C`, the “hERG current change (%, negative = inhibition) at 10uM” value is listed as -5.73%.

`CCN(CC)S(=O)(=O)c1cc(C)ccc1NC(=S)Nc1cccnc1`: the “hERG current change (%, negative = inhibition) at 10uM” value is recorded as -6.33%.

With `Cc1ccc(C=C2C(=O)c3ccccc3C2=O)o1`, the “hERG current change (%, negative = inhibition) at 10uM” value amounted to 16.9%.

As to `CC(C)(C)c1csc(NC(=O)c2cccnc2)n1`, the “hERG current change (%, negative = inhibition) at 10uM” value is reported as 13.6%.

In the case of `CCC(c1nnc(SCC(=O)N(C)c2ccccc2)n1Cc1ccccc1)N(C)C` (stereo not drawn), the “hERG current change (%, negative = inhibition) at 10uM” value was 10.5%.

Turning to `COc1ccc(NC(=O)C23CCC(C)(C(=O)C2)C3(C)C)cc1` (stereo not drawn), the “hERG current change (%, negative = inhibition) at 10uM” value came to 6.31%.

`OC[C@H]1O[C@H](OCc2ccccc2)[C@H](O[C@@H]2OC[C@@H](O)[C@H](O)[C@H]2O)[C@@H](O)[C@@H]1O`: the “hERG current change (%, negative = inhibition) at 10uM” value came out at 23.8%.

With `Cc1cc(C(=O)Nc2ccc(CC(=O)O)cc2)c(C)o1`, the “hERG current change (%, negative = inhibition) at 10uM” value is recorded as 15.6%.

As to `O=C(Nc1cccc(F)c1)N1C2CCC1CC(O)(c1cccnc1)C2` (stereo not drawn), the “hERG current change (%, negative = inhibition) at 10uM” value is 24.1%.

For the compound `Cc1ccc(C(=O)NCCc2nnc3ccc(SCC(=O)NCc4ccc(F)cc4)nn23)cc1`, the “hERG current change (%, negative = inhibition) at 10uM” value was -7.49%.

`COc1ccc(/C=C/C(=O)NCC(=O)N/N=C(/C)c2ccc(Cl)cc2)cc1`: the “hERG current change (%, negative = inhibition) at 10uM” value came to 9.47%.

Regarding `COc1ccc(S(=O)(=O)N(CCc2ccccc2)CC(=O)O)cc1`, the “hERG current change (%, negative = inhibition) at 10uM” value is listed as -0.622%.

As for `C=CCn1c(=S)[nH]c2ccccc2c1=O`, the “hERG current change (%, negative = inhibition) at 10uM” value amounted to 3.65%.

Consider `COc1ccc(OC)c(C(C(=O)NC2CCCCC2)N(Cc2ccco2)C(=O)c2ccccn2)c1` (stereo not drawn), for which the “hERG current change (%, negative = inhibition) at 10uM” value is on record as -1.41%.

Take `CCO[C@H]1OC(C(=O)NCc2nc3ccccc3[nH]2)=C[C@@H](c2csc3ccccc23)[C@@H]1CCCO`: the “hERG current change (%, negative = inhibition) at 10uM” value is listed as -12.2%.

In the case of `COc1ccc(C(=O)NCc2nnc(SC)n2Cc2ccccc2)cc1`, the “hERG current change (%, negative = inhibition) at 10uM” value turned out to be 0.866%.

Take `CCC(=O)Oc1ccc2oc(=O)cc(C)c2c1`: the “hERG current change (%, negative = inhibition) at 10uM” value was 5.91%.

For the compound `O=C(c1cccc([N+](=O)[O-])c1)N1CCN(c2ccccn2)CC1`, the “hERG current change (%, negative = inhibition) at 10uM” value is given as -4.05%.

On to `O=C(O)c1ccc(N2C(=O)c3cccc4c(C(=O)O)ccc(c34)C2=O)cc1`, for which the “hERG current change (%, negative = inhibition) at 10uM” value is listed as 15%.

On to `CC(C)c1nc(CNC(=O)CC2C(=O)NCCN2Cc2cccc(F)c2F)cs1` (stereo not drawn), for which the “hERG current change (%, negative = inhibition) at 10uM” value was -5.55%.
